# Source: PubChem BioAssay AID624417 (National Center for Advancing Translational Sciences (NCATS), 2012)
# The whole screen tested about 410,000 compounds, of which about 6,400 (1.6%) were called active. Inconclusive results, whose numbers are uncertain, are shown with a selection of clear calls. Calls come from the whole dose curve; as a rule, active = well fitted inhibition curve with a large enough effect; inconclusive = small, poorly fitted or top-dose-only effect; inactive = no such curve, though single readings can be large or run the other way. Potencies of inconclusive entries are left out as doubtful fits.
# Biological target: Glucagon-like peptide 1 receptor (Homo sapiens) (UniProt P43220)
# Assay: qHTS of GLP-1 Receptor Inverse Agonists (Inhibition Mode); note: nearly all actives have a fitted effect of over 55% in size
# Conditions: HEK293 GLP-1R CRE-luciferase, luminescence, 24 h, GLP-1R form is constitutively active; activity change, negative = inhibition: at 38.3 µM (top of the series) unless noted
# Procedure, shortened: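 Readout was luciferase luminescence, measured 12 min after detection reagent at room temperature. Beforehand, GLP-1R reporter HEK293 cells had sat 12 h, then received compounds for 24 hr at 37 deg C.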
# % is set by controls: 0 for no effect and ±100 for the full control effect; potency is the fitted concentration of half-maximal effect; tags give direction and shape of the fitted curve.
# UniProt P43220, sequence (P43220 whole entry, looked up): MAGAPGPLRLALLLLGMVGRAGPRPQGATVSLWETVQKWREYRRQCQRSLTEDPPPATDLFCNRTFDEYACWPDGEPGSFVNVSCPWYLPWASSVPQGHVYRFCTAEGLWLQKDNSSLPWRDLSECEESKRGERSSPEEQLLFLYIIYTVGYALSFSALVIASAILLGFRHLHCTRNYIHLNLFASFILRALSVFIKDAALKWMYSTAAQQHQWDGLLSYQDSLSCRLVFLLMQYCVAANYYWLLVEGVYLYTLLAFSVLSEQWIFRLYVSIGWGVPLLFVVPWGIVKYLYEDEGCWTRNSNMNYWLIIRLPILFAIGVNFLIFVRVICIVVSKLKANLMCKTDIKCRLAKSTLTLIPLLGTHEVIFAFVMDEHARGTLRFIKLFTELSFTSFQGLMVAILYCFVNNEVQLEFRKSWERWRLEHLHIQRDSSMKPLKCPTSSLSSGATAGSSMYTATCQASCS
SMILES,Potency,"activity change, negative = inhibition"
N#Cc1nc(COc2ccc(Cl)cc2)oc1N1CCCCCC1,"inconclusive [inhibitor, single point]",
Brc1cccc2sc(N3CCN(c4ccccc4)CC3)nc12,"inconclusive [inhibitor, single point]",
C=C(C)Cn1c(=O)c2c(nc3n2CCCN3CCc2ccccc2)n(C)c1=O,"inconclusive [inhibitor, partial curve, poor fit]",
COc1ccccc1N1CCN(C(=O)C(CC(C)C)NC(=O)C2CCCCC2)CC1 (stereo unspecified),"inconclusive [inhibitor, partial curve]",
COc1ccc(-c2cc(-c3ccccc3)nc(SC(C)C(=O)O)c2C#N)cc1 (stereo unspecified),"inconclusive [inhibitor, single point]",
Cn1cnc([N+](=O)[O-])c1Sc1ccccc1,"inconclusive [inhibitor, partial curve, poor fit]",
CC(C)OCCCNC(=S)N1CCC(C(=O)c2ccc(F)cc2)CC1,"inconclusive [inhibitor, partial curve]",
Cc1ccc(S(=O)(=O)N(C)CC(=O)N2CCCCCCC2)cc1,,inactive: -14.3%
CN(C(=O)c1cc2sccc2n1C)C1CCCCC1,"inconclusive [inhibitor, partial curve, poor fit]",
O=C(Nc1ccc(F)cc1)Nc1ccccc1N1CCCCC1,"inconclusive [inhibitor, full curve, poor fit]",
CCn1c2ccccc2c2cc(NC(=O)COC(=O)c3cc(Cl)c(N)cc3OC)ccc21,"inconclusive [inhibitor, partial curve, poor fit]",
Cc1csc(=N)n1CC(=O)N1CCc2ccccc21,,inactive: -5%
O=C(Nc1cccc(Cl)c1)c1cc(S(=O)(=O)N2CCOCC2)cs1,"inconclusive [inhibitor, single point]",
O=C(COc1ccc(F)cc1)NCC1(N2CCCCC2)CCCCC1,"inconclusive [inhibitor, single point]",
Cc1cccc(NC(=S)N/N=C/C(C)c2ccccc2)c1C (stereo unspecified),"inconclusive [inhibitor, single point]",
O=C(COC(=O)C12CC3CC(CC(C3)C1)C2)Nc1ccccc1F,"inconclusive [inhibitor, single point]",
CCCCCCN1C2=NCCCN2c2ccccc21,"inconclusive [inhibitor, partial curve, poor fit]",
CC(=O)Nc1cccc(NC(=O)CSc2ncc(C(=O)Nc3ccccc3)c(=O)n2C)c1,"inconclusive [inhibitor, single point]",
CCc1ccc(N2CC(C(=O)N3CCN(S(=O)(=O)c4cccc(F)c4)CC3)CC2=O)cc1 (stereo unspecified),"inconclusive [inhibitor, single point]",
Cc1cccc(-c2nnn(Cc3nnc(NC(=O)c4ccccc4)s3)n2)c1,,inactive: 19.9%
O=C(c1nc(-c2ccc(Cl)cc2)n2c1CCCCC2)N1CCN(c2ccc(F)cc2)CC1,active: 10 µM,

SMILES,Potency,"activity change, negative = inhibition"
Cc1cc(C)c(OCC(O)CNC(C)(C)C)c(C)c1 (stereo unspecified),"inconclusive [inhibitor, partial curve, poor fit]",
COC(=O)C(C(=O)Nc1nc2ccccc2s1)C1CCCC1 (stereo unspecified),"inconclusive [inhibitor, single point]",
COc1ccc(C)cc1S(=O)(=O)N(CC(=O)Nc1ccc2c(c1)OCCO2)Cc1ccccc1,"inconclusive [inhibitor, single point]",
Cc1ccc(NC(=S)Nc2cccc(S(=O)(=O)Nc3c(C)n(C)n(-c4ccccc4)c3=O)c2)cc1,,inactive: 1.78%
CN(C[C@@H](CC1CCCCC1)N(C[C@H](Cc1ccccc1)N(CCc1ccccc1)N=O)N=O)N=O,"inconclusive [inhibitor, partial curve, poor fit]",
CC(C)c1ccc(OCC(=O)NC2CCCC2)cc1,"inconclusive [inhibitor, single point]",
Cc1cccc(COC[C@H](Cc2ccccc2)N2CCN(C(=O)c3ccc(Cl)c(Cl)c3)CCC2=O)c1,"inconclusive [inhibitor, single point]",
CCOC(=O)C1=C[C@@H](CC)N(S(=O)(=O)c2ccc(C)cc2)[C@H]1c1cccs1,"inconclusive [inhibitor, partial curve]",
COc1ccc(-c2nc3ccccc3nc2-c2ccccc2)cc1,"inconclusive [inhibitor, partial curve, poor fit]",
COc1c(C)cc(C(=O)C2CCCN(C(=O)c3cccc(F)c3)C2)cc1C (stereo unspecified),"inconclusive [inhibitor, single point]",
Nc1ncnc2c1c(-c1ccc(Oc3ccccc3)cc1)cn2C1CCCC1,"inconclusive [inhibitor, partial curve, poor fit]",
COc1ccccc1OCC(=O)N/N=C1/C=C(C)CC1,,inactive: 10.1%
CC1CCC(NC(=O)c2ccc(COc3ccccc3)o2)CC1 (stereo unspecified),"inconclusive [inhibitor, partial curve, poor fit]",
CCCCCn1c(=O)[nH]c2cc(C(=O)NCc3ccc(C)cc3)ccc2c1=O,,inactive: 12.5%
CCC(CO)Nc1nc(CN2CCCCC2)nc2scc(-c3ccccc3)c12 (stereo unspecified),"inconclusive [inhibitor, single point]",
CC1CC(=O)Nc2ccccc2N1C(=O)COc1ccccc1C(N)=O (stereo unspecified),,inactive: 11.5%
CC(Oc1ccc(-c2ccccc2)c(F)c1)c1ccn(S(=O)(=O)c2ccc(Br)cc2)n1 (stereo unspecified),active: 7.08 µM,
O=C(CN(C(=O)c1cc2c(s1)CCC2)C1CCCC1)NCc1cccs1,"inconclusive [inhibitor, single point]",
C/C(=N\NC(=O)c1cccc(S(=O)(=O)N2CCCC2)c1)c1ccc(OCC(=O)N(C)C)cc1,"inconclusive [inhibitor, partial curve, poor fit]",
CCOC(=O)c1c(C)[nH]c(C)c1C(=O)COC(=O)c1cc2ccccc2cc1O,"inconclusive [inhibitor, partial curve, poor fit]",
